The other results are listed elsewhere or left out. Sequences were assembled here from the parent chain. Values near 0.05 are background.
B1: TEV protease; numbered along this chain (parent)
chain: MGESLFKGPRDYNPISSSICHLTNESDGHTTSLYGIGFGPFIITNKHLFRRNNGTLVVQSLHGVFKVKDTTTLQQHLVDGRDMIIIRMPKDFPPFPQKLKFREPQREERICLVTTNFQTKSMSSMVSDTSCTFPSGDGIFWKHWIQTKDGQCGSPLVSTRDGFIVGIHSASNFTNTNNYFTSVPKNFMELLTNQEAQQWVSGWRLNADSVLWGGHKVFMVKPEEPFQPVKEATQL

Variants of: B1
Assay: raw area under fraction-flipped curve 0-4 h after induction (AUC4h, not background-subtracted), DNA-recorder readout of cleavage of the substrate (dimensionless); higher = more cleavage of the substrate by the protease variant
Settings: temperature: 34 °C; time window: 0-4 h after rhamnose induction
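Note: Bxb1 expression induced with 0.2% (w/v) L-rhamnose at OD600 near 0.5, cultures sampled hourly, flipped fraction per protease–substrate barcode pair counted by paired-end Illumina sequencing.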

MGESLFKGPRDYNPISSSICHLTNESDGHTTSLYGIGFGPFIITNKHLFRRNNGTLVVQSLHGVFKVKDTTTLQQHLVDGRDMIIIRMPKDFPPFPQKLKFREPQREERICLVTTNFQTKSMSSMVSDTSCTFPSGDGIFWIHWIQTKDGQCGSPLVSTRDGFIVGIHSASNFTNTNNYFTSVPKNFMELLTNQEAQQWVSGWRLNADSVLWGGHKVFMVKPEEPFQPVKEATQL [K142I]
area with substrate ENLCFQS: 0.066 | area with substrate ENLDFQS: 0.0643 | area with substrate ENLEFQS: 0.0867 | area with substrate ENLFFQS: 0.0708 | area with substrate ENLHFQS: 0.0644 | area with substrate ENLIFQS: 0.0752 | area with substrate ENLKFQS: 0.0773 | area with substrate ENLLFQS: 0.104 | area with substrate ENLMFQS: 0.0672 | area with substrate ENLNFQS: 0.0658 | area with substrate ENLPFQS: 0.0312 | area with substrate ENLQFQS: 0.0506 | area with substrate ENLRFQS: 0.0908 | area with substrate ENLSFQS: 0.0585 | area with substrate ENLTFQS: 0.0507 | area with substrate ENLVFQS: 0.0638 | area with substrate ENLWFQS: 0.0589

MGESLFKGPRDYNPISSSICHLTNESDGHTTSLYGIGFGPFIITNKHLFRRNNGTLVVQSLHGVFKVKDTTTLQQHLVDGRDMIIIRMPKDFPPFPQKLKFREPQREERICLVTTNFQTKSMSSMVSDTSCTFPSGDGIFWKHWIQTKDGQCGWPLVSTRDGFIVGIHSASNFTNTNNYFTSVPKNFMELLTNQEAQQWVSGWRLNADSVLWGGHKVFMVKPEEPFQPVKEATQL [S154W]
area with substrate ENLCFQS: 0.0719 | area with substrate ENLDFQS: 0.0624 | area with substrate ENLEFQS: 0.0665 | area with substrate ENLFFQS: 0.0697 | area with substrate ENLGFQS: 0.083 | area with substrate ENLHFQS: 0.0465 | area with substrate ENLIFQS: 0.0709 | area with substrate ENLKFQS: 0.0734 | area with substrate ENLLFQS: 0.0645 | area with substrate ENLNFQS: 0.0602 | area with substrate ENLPFQS: 0.0555 | area with substrate ENLRFQS: 0.0701 | area with substrate ENLTFQS: 0.0671 | area with substrate ENLVFQS: 0.0571

MGESLFKGPRDYNPISSSICHLTNESDGHTTSLYGIGFGPFIITNKHLFRRNNGTLVVQSLHGVFKVKDTTTLQQHLVDGRDMIIIRMPKDFPPFPQKLKFREPQREERICLVTTNFQTKSMSSMVSDTSCTFPSGDGIFWKHWIQTKDGQCGSDLVSTRDGFIVGIHSASNFTNTNNYFTSVPKNFMELLTNQEAQQWVSGWRLNADSVLWGGHKVFMVKPEEPFQPVKEATQL [P155D]
area with substrate ENLCFQS: 0.0441 | area with substrate ENLDFQS: 0.0518 | area with substrate ENLEFQS: 0.0596 | area with substrate ENLFFQS: 0.0524 | area with substrate ENLGFQS: 0.0497 | area with substrate ENLHFQS: 0.0578 | area with substrate ENLIFQS: 0.0472 | area with substrate ENLKFQS: 0.0499 | area with substrate ENLLFQS: 0.0634 | area with substrate ENLNFQS: 0.0516 | area with substrate ENLPFQS: 0.0532 | area with substrate ENLQFQS: 0.0465 | area with substrate ENLRFQS: 0.0538 | area with substrate ENLSFQS: 0.0464 | area with substrate ENLVFQS: 0.0516 | area with substrate ENLWFQS: 0.0605

MGESLFKGPRDYNPISSSICHLTNESDGHTTSLYGIGFGPFIITNKHLFRRNNGTLVVQSLHGVFKVKDTTTLQQHLVDGRDMIIIRMPKDFPPFPQKLKFREPQREERICLVTTNFQTKSMSSMVSDTSCTFPSGDGIFWKHWIQTKDGQCGSPQVSTRDGFIVGIHSASNFTNTNNYFTSVPKNFMELLTNQEAQQWVSGWRLNADSVLWGGHKVFMVKPEEPFQPVKEATQL [L156Q]
area with substrate ENLCFQS: 0.0504 | area with substrate ENLDFQS: 0.0519 | area with substrate ENLEFQS: 0.0449 | area with substrate ENLFFQS: 0.0671 | area with substrate ENLHFQS: 0.068 | area with substrate ENLIFQS: 0.0556 | area with substrate ENLKFQS: 0.0638 | area with substrate ENLLFQS: 0.0383 | area with substrate ENLNFQS: 0.053 | area with substrate ENLPFQS: 0.0584 | area with substrate ENLRFQS: 0.0539 | area with substrate ENLSFQS: 0.0459 | area with substrate ENLWFQS: 0.0793

MGESLFKGPRDYNPISSSICHLTNESDGHTTSLYGIGFGPFIITNKHLFRRNNGTLVVQSLHGVFKVKDTTTLQQHLVDGRDMIIIRMPKDFPPFPQKLKFREPQREERICLVTTNFQTKSMSSMVSDTSCTFPSGDGIFWKHWIQTKDGQCGSPLVGTRDGFIVGIHSASNFTNTNNYFTSVPKNFMELLTNQEAQQWVSGWRLNADSVLWGGHKVFMVKPEEPFQPVKEATQL [S158G]
area with substrate ENLCFQS: 0.0825 | area with substrate ENLDFQS: 0.0637 | area with substrate ENLEFQS: 0.0691 | area with substrate ENLFFQS: 0.108 | area with substrate ENLHFQS: 0.0662 | area with substrate ENLIFQS: 0.0722 | area with substrate ENLKFQS: 0.0963 | area with substrate ENLMFQS: 0.0639 | area with substrate ENLNFQS: 0.0575 | area with substrate ENLPFQS: 0.0524 | area with substrate ENLQFQS: 0.0804 | area with substrate ENLRFQS: 0.0711 | area with substrate ENLSFQS: 0.0745 | area with substrate ENLTFQS: 0.0721

MGESLFKGPRDYNPISSSICHLTNESDGHTTSLYGIGFGPFIITNKHLFRRNNGTLVVQSLHGVFKVKDTTTLQQHLVDGRDMIIIRMPKDFPPFPQKLKFREPQREERICLVTTNFQTKSMSSMVSDTSCTFPSGDGIFWKHWIQTKDGQCGSPLVSTRDGFDVGIHSASNFTNTNNYFTSVPKNFMELLTNQEAQQWVSGWRLNADSVLWGGHKVFMVKPEEPFQPVKEATQL [I164D]
area with substrate ENLCFQS: 0.0454 | area with substrate ENLDFQS: 0.0438 | area with substrate ENLEFQS: 0.0619 | area with substrate ENLFFQS: 0.0618 | area with substrate ENLGFQS: 0.0626 | area with substrate ENLIFQS: 0.0369 | area with substrate ENLKFQS: 0.051 | area with substrate ENLLFQS: 0.0575 | area with substrate ENLMFQS: 0.0496 | area with substrate ENLNFQS: 0.0552 | area with substrate ENLPFQS: 0.0611 | area with substrate ENLQFQS: 0.0518 | area with substrate ENLRFQS: 0.0553 | area with substrate ENLSFQS: 0.0576 | area with substrate ENLTFQS: 0.0405 | area with substrate ENLVFQS: 0.0709

MGESLFKGPRDYNPISSSICHLTNESDGHTTSLYGIGFGPFIITNKHLFRRNNGTLVVQSLHGVFKVKDTTTLQQHLVDGRDMIIIRMPKDFPPFPQKLKFREPQREERICLVTTNFQTKSMSSMVSDTSCTFPSGDGIFWKHWIQTKDGQCGSPLVSTRDGFIRGIHSASNFTNTNNYFTSVPKNFMELLTNQEAQQWVSGWRLNADSVLWGGHKVFMVKPEEPFQPVKEATQL [V165R]
area with substrate ENLCFQS: 0.0614 | area with substrate ENLDFQS: 0.0562 | area with substrate ENLEFQS: 0.0461 | area with substrate ENLFFQS: 0.0632 | area with substrate ENLGFQS: 0.0604 | area with substrate ENLHFQS: 0.0557 | area with substrate ENLIFQS: 0.0518 | area with substrate ENLKFQS: 0.0553 | area with substrate ENLLFQS: 0.0539 | area with substrate ENLNFQS: 0.0575 | area with substrate ENLPFQS: 0.0493 | area with substrate ENLQFQS: 0.0463 | area with substrate ENLVFQS: 0.065 | area with substrate ENLWFQS: 0.0536

MGESLFKGPRDYNPISSSICHLTNESDGHTTSLYGIGFGPFIITNKHLFRRNNGTLVVQSLHGVFKVKDTTTLQQHLVDGRDMIIIRMPKDFPPFPQKLKFREPQREERICLVTTNFQTKSMSSMVSDTSCTFPSGDGIFWKHWIQTKDGQCGSPLVSTRDGFITGIHSASNFTNTNNYFTSVPKNFMELLTNQEAQQWVSGWRLNADSVLWGGHKVFMVKPEEPFQPVKEATQL [V165T]
area with substrate ENLCFQS: 0.063 | area with substrate ENLDFQS: 0.0671 | area with substrate ENLEFQS: 0.0509 | area with substrate ENLFFQS: 0.0509 | area with substrate ENLHFQS: 0.0597 | area with substrate ENLIFQS: 0.0665 | area with substrate ENLKFQS: 0.0691 | area with substrate ENLNFQS: 0.0599 | area with substrate ENLQFQS: 0.0534 | area with substrate ENLRFQS: 0.0673 | area with substrate ENLSFQS: 0.0393 | area with substrate ENLVFQS: 0.0634 | area with substrate ENLWFQS: 0.0553

MGESLFKGPRDYNPISSSICHLTNESDGHTTSLYGIGFGPFIITNKHLFRRNNGTLVVQSLHGVFKVKDTTTLQQHLVDGRDMIIIRMPKDFPPFPQKLKFREPQREERICLVTTNFQTKSMSSMVSDTSCTFPSGDGIFWKHWIQTKDGQCGSPLVSTRDGFIVAIHSASNFTNTNNYFTSVPKNFMELLTNQEAQQWVSGWRLNADSVLWGGHKVFMVKPEEPFQPVKEATQL [G166A]
area with substrate ENLCFQS: 0.0488 | area with substrate ENLDFQS: 0.0531 | area with substrate ENLEFQS: 0.0467 | area with substrate ENLFFQS: 0.0682 | area with substrate ENLHFQS: 0.0458 | area with substrate ENLIFQS: 0.0728 | area with substrate ENLKFQS: 0.0579 | area with substrate ENLLFQS: 0.0488 | area with substrate ENLNFQS: 0.0616 | area with substrate ENLPFQS: 0.0652 | area with substrate ENLRFQS: 0.0524 | area with substrate ENLSFQS: 0.0468 | area with substrate ENLVFQS: 0.0406
